# Measured values reported in the supplement of paper PMC4604168 (melanoma cell lines).
# This is one part of the list. Most values come without repeats; read them as rough.
# System: A101D
# Assay: cell count relative to DMSO control; melanoma cells; higher = more viable cells
# Conditions: library dose: standard library concentration; 72 h
# 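Note: cells treated in 1,536-well plates, then fixed and DAPI-stained, with nuclei counted from automated high-throughput microscope images.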
row,SMILES,cell count [%]
1,"Cn1c(Nc2ccc(C(F)(F)F)cc2)nc2cc(Oc3ccnc(-c4ncc(C(F)(F)F)[nH]4)c3)ccc21 + CO[C@@H]1[C@H](N(C)C(=O)c2ccccc2)C[C@H]2O[C@]1(C)n1c3ccccc3c3c4c(c5c6ccccc6n2c5c31)C(=O)NC4 [Midostaurin] (first compound 0.4 µM, partner dose 0.4 µM)",48.6
2,"C#Cc1cccc(Nc2ncnc3cc(OCCOC)c(OCCOC)cc23)c1 [erlotinib] + NC(=O)Nc1cc(-c2cccc(F)c2)sc1C(=O)N[C@H]1CCCNC1 [AZD7762] (first compound 4 µM, partner dose 0.1 µM)",60
3,"OCc1c[nH]c2ccccc12 [Indole-3-carbinol] + O=C(Nc1cccc(Cl)c1)Nc1ncc(CCNc2ncnc3ccsc23)s1 [SNS314] (first compound 4 µM, partner dose 0.004 µM)",95.3
4,"Clc1ccc(Nc2nnc(Cc3ccncc3)c3ccccc23)cc1 [vatalanib] + Nc1cccc2c1CN(C1CCC(=O)NC1=O)C2=O [lenalidomide] (first compound 10 µM, partner dose 5 µM)",90.8
5,"COCC[n+]1c2c(n(Cc3cnccn3)c1C)C(=O)c1ccccc1C2=O + O=C(Nc1cccc(Cl)c1)Nc1ncc(CCNc2ncnc3ccsc23)s1 [SNS314] (first compound 0.002 µM, partner dose 0.004 µM)",54.6

# System: A2058
# Assay: as above
# Conditions: library dose: standard library concentration; 72 h
row,SMILES,cell count [%]
1,"Clc1ccc(Nc2nnc(Cc3ccncc3)c3ccccc23)cc1 [vatalanib] + CN(NC(=O)CC(=O)NN(C)C(=S)c1ccccc1)C(=S)c1ccccc1 [STA4783] (first compound 10 µM, partner dose 0.03 µM)",19.3
2,"Clc1ccc(Nc2nnc(Cc3ccncc3)c3ccccc23)cc1 [vatalanib] + OCCn1cc(-c2cnc3nnn(Cc4ccc5ncccc5c4)c3n2)cn1 [PF04217903] (first compound 10 µM, partner dose 5 µM)",76.6
3,"OCc1c[nH]c2ccccc12 [Indole-3-carbinol] + C#Cc1cccc(Nc2ncnc3cc(OCCOC)c(OCCOC)cc23)c1 [erlotinib] (first compound 4 µM, partner dose 4 µM)",82.4
4,"COCC[n+]1c2c(n(Cc3cnccn3)c1C)C(=O)c1ccccc1C2=O + NCC(=O)Nc1ccc(-n2nc(C(F)(F)F)cc2-c2ccc3c(ccc4ccccc43)c2)cc1 [OSU03012] (first compound 0.002 µM, partner dose 5 µM)",14.8
5,"Cn1c(Nc2ccc(C(F)(F)F)cc2)nc2cc(Oc3ccnc(-c4ncc(C(F)(F)F)[nH]4)c3)ccc21 + COc1cc(Nc2ncc(F)c(Nc3ccc4c(n3)NC(=O)C(C)(C)O4)n2)cc(OC)c1OC [Tamatinib] (first compound 0.4 µM, partner dose 2 µM)",83.9
6,"COCC[n+]1c2c(n(Cc3cnccn3)c1C)C(=O)c1ccccc1C2=O + Cn1nnc2c(C(N)=O)ncn2c1=O [temozolomide] (first compound 0.002 µM, partner dose 10 µM)",17.2
7,"Cn1c(Nc2ccc(C(F)(F)F)cc2)nc2cc(Oc3ccnc(-c4ncc(C(F)(F)F)[nH]4)c3)ccc21 + Cc1cc(N2CCOCC2)cc2[nH]c(-c3c(NC[C@@H](O)c4cccc(Cl)c4)cc[nH]c3=O)nc12 [BMS536924] (first compound 0.4 µM, partner dose 1 µM)",84.2
8,"OCc1c[nH]c2ccccc12 [Indole-3-carbinol] + NCC(=O)Nc1ccc(-n2nc(C(F)(F)F)cc2-c2ccc3c(ccc4ccccc43)c2)cc1 [OSU03012] (first compound 4 µM, partner dose 5 µM)",98.9
9,"COCC[n+]1c2c(n(Cc3cnccn3)c1C)C(=O)c1ccccc1C2=O + C[C@@H]1CCN(C(=O)CC#N)C[C@@H]1N(C)c1ncnc2[nH]ccc12 [CP690550] (first compound 0.002 µM, partner dose 5 µM)",22.4
10,"OCc1c[nH]c2ccccc12 [Indole-3-carbinol] + CN(NC(=O)CC(=O)NN(C)C(=S)c1ccccc1)C(=S)c1ccccc1 [STA4783] (first compound 4 µM, partner dose 0.03 µM)",13.2
11,"COCC[n+]1c2c(n(Cc3cnccn3)c1C)C(=O)c1ccccc1C2=O + COc1cc2c(Oc3ccc4[nH]c(C)cc4c3F)ncnc2cc1OCCCN1CCCC1 [cediranib] (first compound 0.002 µM, partner dose 2 µM)",18
12,"Clc1ccc(Nc2nnc(Cc3ccncc3)c3ccccc23)cc1 [vatalanib] + Cn1c(Nc2ccc(C(F)(F)F)cc2)nc2cc(Oc3ccnc(-c4ncc(C(F)(F)F)[nH]4)c3)ccc21 [CHIR265] (first compound 10 µM, partner dose 0.4 µM)",61.6
13,"Clc1ccc(Nc2nnc(Cc3ccncc3)c3ccccc23)cc1 [vatalanib] + O=C(Nc1cccc(Cl)c1)Nc1ncc(CCNc2ncnc3ccsc23)s1 [SNS314] (first compound 10 µM, partner dose 0.004 µM)",93.7
14,"COCC[n+]1c2c(n(Cc3cnccn3)c1C)C(=O)c1ccccc1C2=O + NC(=O)Nc1cc(-c2cccc(F)c2)sc1C(=O)N[C@H]1CCCNC1 [AZD7762] (first compound 0.002 µM, partner dose 0.1 µM)",6.92
15,"O=C(CCCCCCC(=O)Nc1ccccc1)NO [vorinostat] + COc1cc(Nc2ncc(F)c(Nc3ccc4c(n3)NC(=O)C(C)(C)O4)n2)cc(OC)c1OC [Tamatinib] (first compound 0.4 µM, partner dose 2 µM)",66.8
16,"Clc1ccc(Nc2nnc(Cc3ccncc3)c3ccccc23)cc1 [vatalanib] + CC1(C)NC(=O)N(c2ccc([N+](=O)[O-])c(C(F)(F)F)c2)C1=O [nilutamide] (first compound 10 µM, partner dose 5 µM)",82.3
17,"Nc1cccc2c1CN(C1CCC(=O)NC1=O)C2=O (stereo not drawn) [lenalidomide] + NC(=O)Nc1cc(-c2cccc(F)c2)sc1C(=O)N[C@H]1CCCNC1 [AZD7762] (first compound 5 µM, partner dose 0.1 µM)",101
18,"O=C(CCCCCCC(=O)Nc1ccccc1)NO [vorinostat] + CO[C@@H]1[C@H](N(C)C(=O)c2ccccc2)C[C@H]2O[C@]1(C)n1c3ccccc3c3c4c(c5c6ccccc6n2c5c31)C(=O)NC4 [Midostaurin] (first compound 0.4 µM, partner dose 0.4 µM)",43.7
19,"O=C(CCCCCCC(=O)Nc1ccccc1)NO [vorinostat] + Cn1cncc1[C@@](N)(c1ccc(Cl)cc1)c1ccc2c(c1)c(-c1cccc(Cl)c1)cc(=O)n2C [tipifarnib] (first compound 0.4 µM, partner dose 0.05 µM)",84.2
20,"Nc1cccc2c1CN(C1CCC(=O)NC1=O)C2=O (stereo not drawn) [lenalidomide] + NCC(=O)Nc1ccc(-n2nc(C(F)(F)F)cc2-c2ccc3c(ccc4ccccc43)c2)cc1 [OSU03012] (first compound 5 µM, partner dose 5 µM)",95.3
21,"O=C(CCCCCCC(=O)Nc1ccccc1)NO [vorinostat] + COc1cc2c(Oc3ccc4[nH]c(C)cc4c3F)ncnc2cc1OCCCN1CCCC1 [cediranib] (first compound 0.4 µM, partner dose 2 µM)",90.5
22,"Nc1cccc2c1CN(C1CCC(=O)NC1=O)C2=O (stereo not drawn) [lenalidomide] + CN(C)S(=O)(=O)c1ccc2c(c1)/C(=C/c1cc3c([nH]1)CCCC3)C(=O)N2 [SU6656] (first compound 5 µM, partner dose 2 µM)",90
23,"OCc1c[nH]c2ccccc12 [Indole-3-carbinol] + COCC[n+]1c2c(n(Cc3cnccn3)c1C)C(=O)c1ccccc1C2=O [YM155] (first compound 4 µM, partner dose 0.002 µM)",30.9
24,"C#Cc1cccc(Nc2ncnc3cc(OCCOC)c(OCCOC)cc23)c1 [erlotinib] + Cc1cc(N2CCOCC2)cc2[nH]c(-c3c(NC[C@@H](O)c4cccc(Cl)c4)cc[nH]c3=O)nc12 [BMS536924] (first compound 4 µM, partner dose 1 µM)",74.2
25,"C#Cc1cccc(Nc2ncnc3cc(OCCOC)c(OCCOC)cc23)c1 [erlotinib] + OCCn1cc(-c2cnc3nnn(Cc4ccc5ncccc5c4)c3n2)cn1 [PF04217903] (first compound 4 µM, partner dose 5 µM)",77.7
26,"COCC[n+]1c2c(n(Cc3cnccn3)c1C)C(=O)c1ccccc1C2=O + Cn1cncc1[C@@](N)(c1ccc(Cl)cc1)c1ccc2c(c1)c(-c1cccc(Cl)c1)cc(=O)n2C [tipifarnib] (first compound 0.002 µM, partner dose 0.05 µM)",19.3
27,"O=C(CCCCCCC(=O)Nc1ccccc1)NO [vorinostat] + O=C(O)c1ccc(-c2c[nH]c3ncc(-c4ccccc4)cc23)cc1C1CCCC1 [GSK650394] (first compound 0.4 µM, partner dose 0.8 µM)",79.8
28,"Clc1ccc(Nc2nnc(Cc3ccncc3)c3ccccc23)cc1 [vatalanib] + COc1cc(Nc2ncc(F)c(Nc3ccc4c(n3)NC(=O)C(C)(C)O4)n2)cc(OC)c1OC [Tamatinib] (first compound 10 µM, partner dose 2 µM)",63.2
